# Measured values: PubChem BioAssay AID1030 (National Center for Advancing Translational Sciences (NCATS), 2008)
# The whole screen tested about 220,000 compounds, of which about 16,000 (7.3%) were called active. Inconclusive results, whose numbers are uncertain, are shown with a selection of clear calls. Calls follow the shape of the dose curve; as a rule, active = well fitted inhibition curve with a large enough effect (not every such curve was filed as active); inconclusive = small, poorly fitted or top-dose-only effect, or another doubt; inactive = no such curve, though single readings can be large or run the other way. No potency is given beside an inconclusive call; the fits are too rough.
# Target: Aldehyde dehydrogenase 1A1 (Homo sapiens) (UniProt P00352)
# Chain of UniProt P00352 (P00352 whole entry, looked up): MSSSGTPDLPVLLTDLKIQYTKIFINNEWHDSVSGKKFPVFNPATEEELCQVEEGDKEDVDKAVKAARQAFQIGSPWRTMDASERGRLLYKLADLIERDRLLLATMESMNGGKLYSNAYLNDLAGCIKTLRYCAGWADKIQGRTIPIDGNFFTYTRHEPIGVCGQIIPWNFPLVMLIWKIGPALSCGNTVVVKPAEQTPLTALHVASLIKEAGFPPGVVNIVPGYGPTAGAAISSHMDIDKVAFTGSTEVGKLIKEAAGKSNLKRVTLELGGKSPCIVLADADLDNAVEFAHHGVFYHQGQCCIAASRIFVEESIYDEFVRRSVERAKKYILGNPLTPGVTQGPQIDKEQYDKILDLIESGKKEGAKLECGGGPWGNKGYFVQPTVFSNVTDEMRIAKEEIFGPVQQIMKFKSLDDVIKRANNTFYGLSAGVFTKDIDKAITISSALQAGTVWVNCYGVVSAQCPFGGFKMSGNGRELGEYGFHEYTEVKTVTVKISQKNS
# Experiment: qHTS Assay for Inhibitors of Aldehyde Dehydrogenase 1 (ALDH1A1)
# Conditions: Purified ALDH1A1, NADH fluorescence, propionaldehyde substrate; series mostly up to 75.3 µM
# Potency is read from the fitted curve at half-maximal effect; tags tell the direction and shape of the fitted curve.
row,SMILES,Potency
1,O=C(CCN1CCN(c2ccccc2)CC1)Nc1nccs1,"inconclusive [inhibitor, single point]"
2,CCN(CC)CCn1c2ccccc2c2cnc(N=CN(C)C)c(C#N)c21,"inconclusive [inhibitor, single point]"
3,COc1ccc(NC(=S)NC(=O)/C=C/c2cccs2)cc1,"inconclusive [inhibitor, partial curve, poor fit]"
4,Cc1nc(-n2nnc3cc(C)c(C)cc32)c2c3c(sc2n1)CCCC3,"inconclusive [inhibitor, single point]"
5,Cc1onc(-c2ccccc2Cl)c1-c1nc(-c2ccncc2)no1,"inconclusive [inhibitor, partial curve]"
6,O=C(COc1ccc([N+](=O)[O-])cc1)NCCC1=CCCCC1,active: 10 µM
7,Cc1cc2oc(C(=O)NC3CCS(=O)(=O)C3)c(C)c2cc1C (centres undefined),"inconclusive [inhibitor, single point]"
8,Cc1cccc(OCc2nc(C#N)c(NCc3ccc4c(c3)OCO4)o2)c1,"inconclusive [inhibitor, partial curve]"
9,COc1cc(OC)cc(-c2nc(=S)n3ccsc3n2)c1,inactive
10,Cc1cccn2c(=O)c(/C=C(\C#N)C(=O)NCc3ccco3)c(N3CCCCC3)nc12,active: 14.1 µM
11,CN(Cc1cn[nH]c1-c1cc2ccccc2o1)CC1CCOCC1,inactive
12,CC(C)Oc1cccc(C(=O)C2CCCN(Cc3cnn(C(C)C)c3)C2)c1 (centres undefined),active: 10 µM
13,O=C(COC(=O)c1cncc(Br)c1)NCCC1=CCCCC1,"inconclusive [inhibitor, single point]"
14,COc1ccccc1NC1=NC(C)(C)N=C(N)N1,inactive
15,O=C1CC(N2CCN(c3ccccn3)CC2)C(=O)N1CC(c1ccccc1)c1ccccc1 (centres undefined),active: 3.16 µM
16,COC(=O)c1ccccc1SC1CC(=O)N(c2ccccc2)C1=O (centres undefined),"inconclusive [inhibitor, single point]"
17,Cc1c(Cc2ccccc2)c(=O)oc2c(C)c(OCc3nn[nH]n3)ccc12,"inconclusive [inhibitor, partial curve]"
18,CCCCCC#CCC#CCC#CCC#CCCCC(=O)O,inactive
19,NNC(=O)c1cnn(-c2ccccc2)c1-n1cccc1,active: 0.708 µM
20,Cn1cnnc1SCC(=O)c1cc2ccccc2oc1=O,active: 10 µM
21,CCOC(=O)C[n+]1c(C)sc2ccc(OC)cc21,active: 6.31 µM
22,COC(=O)C1=C(C(=O)c2ccc(C)cc2)C(c2ccc(O)c(OC)c2)n2nnnc2N1 (centres undefined),"inconclusive [inhibitor, single point]"
23,CC(C)(C)NC(=O)c1sccc1C(=O)O,"inconclusive [inhibitor, partial curve]"
24,CN(C)c1ccc(C=Nc2ccccc2C(N)=O)cc1,"inconclusive [inhibitor, partial curve]"
25,CC1=C(C(=O)O)N2C(=O)C(NC(=O)C(N)c3ccc(O)cc3)C2SC1 (centres undefined),inactive

row,SMILES,Potency
1,CN1CCN(c2oc(COc3ccc(-c4ccccc4)cc3)nc2C#N)CC1,inactive
2,CC(NC(=O)COc1ccccc1)C(=O)OCC(=O)c1cc2ccccc2o1 (centres undefined),"inconclusive [inhibitor, single point]"
3,C/C(=N\NC(=O)c1ccc(CSc2nc(C)cc(C)n2)cc1)c1ccco1,"inconclusive [inhibitor, single point]"
4,O=C(O/N=C\c1ccc(N2CCCCC2)c([N+](=O)[O-])c1)c1c(F)cccc1F,active: 17.8 µM
5,CCOc1ccc(N2C(=O)CC(Sc3nc(C)cc(C)c3C#N)C2=O)cc1 (centres undefined),active: 14.1 µM
6,NS(=O)(=O)c1ccc(NC(=S)NC2CCCCC2)cc1,inactive
7,CC(=O)Nc1c(C(=O)N2CCOCC2)sc2nc3c(cc12)COC(C)(C)C3,"inconclusive [inhibitor, single point]"
8,CCOC(=O)Cn1cc(C(=O)c2cccs2)c2ccccc21,"inconclusive [inhibitor, single point]"
9,COC(=O)CCc1c(C)nc(N)[nH]c1=O,inactive
10,CNC1=CN=C(c2ccccc2)c2cc(Cl)ccc2N1,inactive
11,O=C(COC(=O)CCS(=O)(=O)c1ccc(Cl)cc1)NCCc1ccc(Cl)cc1Cl,inactive
12,CS(=O)(=O)C1=C(O)C(=O)N(CCCC(=O)O)C1c1ccccc1F (centres undefined),"inconclusive [inhibitor, single point]"
13,O=C(COc1ccccc1Cl)N1CCN(c2ccc([N+](=O)[O-])c(N3CCCCC3)c2)CC1,active: 1.58 µM
14,O=c1c2nnn(Cc3ccc(Cl)cc3)c2ncn1Cc1ccc(F)cc1,inactive
15,CN1CCO[C@H](c2ccccc2)c2ccccc2C1,inactive
16,CCOC(=O)COc1cc([N+](=O)[O-])cc2cccnc12,inactive
17,CCN1CCN(C(=O)c2oc(=O)c3ccccc3c2-c2ccc(C)cc2)CC1,"inconclusive [inhibitor, partial curve]"
18,Cc1ccccc1CCN(C(=O)CN1C(=O)c2ccccc2S1(=O)=O)C(C(=O)NCC1CCCO1)c1ccncc1 (centres undefined),"inconclusive [inhibitor, single point]"
19,COCCNC(=O)CCCn1c(=O)c2cc(OC)c(OC)cc2n(CC(=O)Nc2ccc(C)c(F)c2)c1=O,"inconclusive [inhibitor, partial curve]"
20,Cc1nn(CC(=O)NCc2ccc(-n3cccn3)cc2)c(C)c1[N+](=O)[O-],inactive
21,CN(C(=O)c1ccco1)c1nc2c(s1)CCCC2,inactive
22,COc1ccccc1C1=NN(C2=NN=C(N)Cc3ncnn32)C(O)(C(F)(F)F)C1 (centres undefined),"inconclusive [inhibitor, single point]"
23,O=C(CN1CCCCCCC1)N/N=C/c1ccccc1F,"inconclusive [inhibitor, single point]"
24,CC/C(=N/NC(=O)c1ccc(Br)cc1)c1ccc(OCCN2CCOCC2)cc1,"inconclusive [inhibitor, partial curve]"
